# From paper PMC6919601, “Identification of Plasmodium dipeptidyl aminopeptidase allosteric inhibitors by high throughput screening” (PLoS ONE, 2019)
# In all, about 110,000 compounds went through this assay and about 230 (0.21%) showed an effect of 50% or more. This is one part of the list.
# Target: DPAP1 (Plasmodium falciparum, UniProt Q8IIJ9)
# Assay: primary screen, percent inhibition; read by cleavage of a fluorogenic dipeptide substrate; higher = more effect of the substance
# Set-up: species or system P. falciparum D10 trophozoite lysates; single well
# 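Note: 30 min substrate incubation versus DMSO and 10 µM JCP410 controls.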
# Chain of DPAP1 (Q8IIJ9 whole entry, looked up): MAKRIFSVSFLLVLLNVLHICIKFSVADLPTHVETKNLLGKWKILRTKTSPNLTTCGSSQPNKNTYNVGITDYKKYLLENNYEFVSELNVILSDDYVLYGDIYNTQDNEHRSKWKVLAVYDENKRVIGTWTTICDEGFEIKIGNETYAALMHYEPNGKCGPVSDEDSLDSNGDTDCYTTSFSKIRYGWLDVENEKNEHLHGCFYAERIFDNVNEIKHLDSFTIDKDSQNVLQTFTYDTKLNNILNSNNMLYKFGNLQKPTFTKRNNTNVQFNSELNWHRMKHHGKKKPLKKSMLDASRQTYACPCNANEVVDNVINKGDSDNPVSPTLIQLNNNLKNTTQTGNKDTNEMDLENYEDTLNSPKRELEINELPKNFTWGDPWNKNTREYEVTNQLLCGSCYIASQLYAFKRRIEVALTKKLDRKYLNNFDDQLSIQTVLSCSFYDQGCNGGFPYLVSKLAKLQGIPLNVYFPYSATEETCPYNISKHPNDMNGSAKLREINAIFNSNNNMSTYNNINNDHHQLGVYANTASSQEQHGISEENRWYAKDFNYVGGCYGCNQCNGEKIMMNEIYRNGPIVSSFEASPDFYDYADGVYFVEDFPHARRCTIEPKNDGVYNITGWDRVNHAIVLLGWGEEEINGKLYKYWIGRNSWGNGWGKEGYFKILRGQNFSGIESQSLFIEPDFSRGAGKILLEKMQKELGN
row,SMILES,% Inhibition @ 10 uM
1,COc1ccccc1OCCn1c(S)nc2ccccc21,-1.46%
2,Cc1oc(-c2ccc(C(=O)NCCc3ccc(Cl)cc3)cc2)nc1CS(=O)(=O)c1ccccc1,-3.31%
3,CC(C)CNC(=O)c1ccccc1NC(=O)c1ccc(C2SCC(=O)N2Cc2ccccc2)cc1 (stereo not drawn),0.635%
4,CCN(CC)C(=O)C1CCCN(Cc2cc(Br)c(O)c(OC)c2)C1 (stereo not drawn),2.33%
5,COc1ccc(Cc2nnn(CC(=O)O)n2)cc1,1.52%
6,O=C1c2[nH]nc(-c3ccccc3O)c2C(c2ccc(OCc3ccccc3)cc2)N1CCCO (stereo not drawn),0.366%
7,COc1ccccc1CC(C)NCc1ccc(C(F)(F)F)cc1 (stereo not drawn),1.26%
8,CSc1ncc(Cl)c(C(=O)N(Cc2ccccc2)Cc2ccco2)n1,-2.85%
9,CCCCN(Cc1ccccc1)Cc1cccnc1,1.74%
10,O=C(Nc1ccc(-c2ccccc2)cc1)c1ccco1,-0.128%
11,CCOc1c(Cl)cc(C2C3=C(O)CC(C)(C)CC3=NC3=C2C(=O)CC(C)(C)C3)cc1OC (stereo not drawn),-2.68%
12,CCC(C)S(=O)(=O)c1oc(-c2cccs2)nc1S(=O)(=O)c1ccc(C)cc1 (stereo not drawn),-1.22%
13,COc1cc(C=C2C(=O)N(C)C(=O)N(C)C2=O)cc(OC)c1O,13.2%
14,CC(CCc1ccco1)NC(=O)c1cccc2c1C(=O)N(C1CCCCC1)C2 (stereo not drawn),-0.499%
15,Cc1cc(CO)c(O)c(CCc2ccccc2)n1,-5.5%
16,COc1ccccc1CN1CCN(Cc2cccc(Br)c2)CC1,-3.49%
17,CS(=O)(=O)C1=NN2C(=N)/C(=C\c3ccc(-c4ccc(Br)cc4)o3)C(=O)N=C2S1,-7.16%
18,O=C(CCC1CCCCC1)N[C@@H](CCc1ccccc1)C(=O)c1nc2cc(C(F)(F)F)ccc2o1,1.35%
19,COc1cc(/C=C2/NC(=O)N(Cc3ccc(F)cc3)C2=O)cc(OC)c1OC,-6.05%
20,COc1cc2cccc(O)c(=O)c2c(O)c1OC,-7.75%
21,CCN1/C(=C/C2=CC(=O)CC(C)(C)C2)Sc2ccccc21,5.77%
22,COc1ccc(CCn2c(SCC(=O)Nc3cc(C)[nH]n3)nc3nccnc3c2=O)cc1OC,-3.73%
23,CCN1C(=O)C(O)(CC(=O)c2ccc(OC)cc2)c2ccccc21 (stereo not drawn),-0.992%
24,CCCc1nc(SC)ncc1C(=O)NCCCN1CCCCC1C (stereo not drawn),0.442%
25,C=CCNc1oc(COc2ccc(Br)cc2)nc1C#N,1.43%
26,CC(CN1CCN(CCO)CC1)c1ccccc1 (stereo not drawn),2.1%

row,SMILES,% Inhibition @ 10 uM
1,O=C(c1ccc(-c2ccccc2F)o1)N1CCOCC1,-4.11%
2,COC(=O)c1cc(S(=O)(=O)N2CCCCC2)ccc1Cl,0.247%
3,Clc1cccc(N2CCN(CC(c3ccccc3)c3ccccc3)CC2)c1,-2.21%
4,O=C(NC1CCCc2ccccc21)C(Cc1ccccc1)NS(=O)(=O)c1cccc2nsnc12 (stereo not drawn),-1.43%
5,COc1ccccc1OCCCn1cc(C(=O)c2ccco2)c2ccccc21,-1.33%
6,C=CCOC(=O)C1=C(C)N=C(C)/C(=C(/O)OCC=C)C1c1ccccc1F (stereo not drawn),-5.63%
7,OC1CCCN(C2CCC(c3ccccc3)CC2)C1 (stereo not drawn),-2.03%
8,CSc1nc2n(n1)C(c1ccc(C)cc1)C1=C(O)CCCC1=N2 (stereo not drawn),-3.45%
9,CCCn1c(SCc2ccc(C)cc2)nc2c1c(=O)[nH]c(=O)n2C,3.65%
10,O=C(NCC1COc2ccccc2O1)c1cnn2c(C(F)(F)F)cc(-c3cccs3)nc12 (stereo not drawn),-6.16%
11,CCNc1oc(COc2ccccc2C)nc1C#N,5.18%
12,c1ccc(CCc2c[nH]c3ccccc23)nc1,2.7%
13,COc1ccc(C)cc1NC(=O)C(OC)c1ccccc1 (stereo not drawn),5.31%
14,COc1ccc(/C=C/C(O)=C2/C(=O)NC34CCCC3C2c2ccccc2O4)c(OC)c1OC (stereo not drawn),9.42%
15,COc1ccc(CNC(=O)Cn2ncn3cccc3c2=O)cc1,-5.15%
16,CCC(C)NC(=O)CN(c1cc(C)ccc1OC)S(=O)(=O)c1ccc(C)cc1 (stereo not drawn),-0.822%
17,CC(=O)Nc1ccc(N2CCn3c2cc(C)c(C#N)c3=O)cc1,-4.8%
18,CCCCCO/C(O)=C1/C(C)=Nc2ncnn2C1c1ccccc1OC(F)F (stereo not drawn),-1.71%
19,CCOC(=O)c1conc1-c1ccc2c(c1)OCO2,3.48%
20,COc1ccc(OC)c(-c2cnc(OC(C)(C)C)nc2OC(C)(C)C)c1,1.52%
21,COc1ccc(CNC(=O)Cc2ccc(Br)cc2)cc1,-5.45%
22,CCCNC(=O)CN(c1cc(Cl)ccc1OC)S(=O)(=O)c1ccccc1,1.87%
23,CCn1c(C(=O)N2CCCCC2)cc2sccc21,-6.68%
24,CCN(CC)CCN(CC)Cc1cc([N+](=O)[O-])ccc1Cl,-2.95%
25,OC(COCCOc1ccc(Br)cc1)CN1CCCCC1 (stereo not drawn),4.31%
